Source: PubChem BioAssay AID927 (National Center for Advancing Translational Sciences (NCATS), 2007)
About 65 (0.1%) of roughly 60,000 compounds were called active. The shares of active, inactive and inconclusive entries below differ from those in the screen. Calls come from the whole dose curve; as a rule, active = well fitted inhibition curve with a large enough effect; inconclusive = small, poorly fitted or top-dose-only effect; inactive = no such curve, though single readings can be large or run the other way. Where the call is inconclusive, the potency comes from a doubtful curve fit.

Target: Ubiquitin carboxyl-terminal hydrolase 2 (Homo sapiens) (UniProt O75604)
Experiment: qHTS Assay for Inhibitors of Ubiquitin-specific Protease USP2a; note: nearly all actives have a fitted effect of over 60% in size;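 for activity change, negative = inhibition: plate controls were DMSO for no effect and NEM full inhibition control for full effect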
Conditions: USP2a enzymatic assay; Potency: qHTS inhibition; activity change, negative = inhibition: at 38.3 µM (top of the series)
Summary of the method: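 20 nM USP2 core + cpd, 30 min RT; add 20 nM Ub-PLA2/20 uM NBD C6-HPC; read Ex460/Em535 at 0 h and 2.5 h. Normalized to NEM; qHTS curve fit/classification.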
Potency is the fitted concentration of half-maximal effect; tags give direction and shape of the fitted curve.

Chain of UniProt O75604 (O75604 whole entry, looked up): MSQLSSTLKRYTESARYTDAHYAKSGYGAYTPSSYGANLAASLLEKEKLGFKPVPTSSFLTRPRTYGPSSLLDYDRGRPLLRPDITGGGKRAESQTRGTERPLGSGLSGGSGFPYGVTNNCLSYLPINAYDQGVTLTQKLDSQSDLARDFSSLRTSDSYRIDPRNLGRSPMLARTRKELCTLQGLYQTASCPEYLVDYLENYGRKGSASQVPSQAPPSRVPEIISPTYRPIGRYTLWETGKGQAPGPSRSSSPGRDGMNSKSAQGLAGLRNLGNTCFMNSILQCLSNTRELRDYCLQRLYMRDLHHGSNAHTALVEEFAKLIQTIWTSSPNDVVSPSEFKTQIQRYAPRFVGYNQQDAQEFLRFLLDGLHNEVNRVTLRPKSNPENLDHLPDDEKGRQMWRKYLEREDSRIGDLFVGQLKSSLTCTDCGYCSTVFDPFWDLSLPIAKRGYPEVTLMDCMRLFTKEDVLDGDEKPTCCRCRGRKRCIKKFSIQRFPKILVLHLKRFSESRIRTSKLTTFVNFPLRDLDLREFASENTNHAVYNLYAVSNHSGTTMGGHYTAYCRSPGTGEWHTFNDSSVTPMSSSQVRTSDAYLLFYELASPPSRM

Row | Compound | Potency | activity change, negative = inhibition
1 | Cc1ccc(/C=C/C2=Cc3c(sc(NC(=O)CSc4n[nH]c(N)n4)c3C#N)C(C)(C)C2)o1 | inconclusive: 31.6 µM [inhibitor, single point] | 
2 | NC(=O)c1cc(Br)cc2c3c([nH]c12)CCCC3 | inconclusive: 12.6 µM [inhibitor, single point] | 
3 | Cc1cccc(CNc2nc(-c3cccc(NS(C)(=O)=O)c3)nc3ccccc23)c1 | inconclusive: 25.1 µM [inhibitor, single point] | 
4 | Nc1nc(SCC(=O)NCc2ccco2)[nH]c(=O)c1-c1ccccc1 | inactive | 
5 | Cc1cc(C)c(O)c(-c2cc(C(=O)Nc3ccc(S(=O)(=O)N4CCOCC4)cc3)[nH]n2)c1 | inconclusive: 25.1 µM [inhibitor, single point] | 
6 | COC(=O)CSc1nc(C(C)C)nc2ccccc12 | inconclusive: 5.01 µM [inhibitor, partial curve] | 
7 | CCOC(=O)c1c(NC(=O)c2cccs2)sc2c1CCC2 | inactive | 
8 | O=C(CSc1nc2nc(-c3cccs3)cc(C(F)(F)F)c2c(=O)[nH]1)NCc1ccco1 | active: 2 µM | 
9 | c1c2c(cc3sc(N4CCOCC4)nc13)OCO2 | inactive | 
10 | CCCCC(NC(C)=O)c1nc2ccccc2n1CCCC (centres undefined) | inconclusive: 25.1 µM [inhibitor, single point] | 
11 | Cc1nc(N2CCC(C)CC2)c2c(C)c(C(=O)O)sc2n1 | inconclusive: 10 µM [inhibitor, partial curve] | 
12 | COCC(C)NC(=O)CCS(=O)(=O)c1nc(-c2ccc(OC)cc2)cc(C(F)(F)F)n1 (centres undefined) | inconclusive: 0.501 µM [inhibitor, full curve] | 
13 | COc1ccc(CNc2ncnc3ccc(-c4cccc(NS(C)(=O)=O)c4)cc23)c(OC)c1 | inconclusive: 15.8 µM [inhibitor, single point] | 
14 | COc1cccc(-c2nc(NCc3cccs3)c3ccccc3n2)c1 | inconclusive: 25.1 µM [inhibitor, single point] | 
15 | Cc1cc2n(n1)C(c1c[nH]c3ccccc13)Nc1ccccc1-2 (centres undefined) | inconclusive: 25.1 µM [inhibitor, single point] | 
16 | Cc1ccc2[nH]c(=O)c(COC(=O)C3CCCO3)cc2c1 (centres undefined) | inactive | 
17 | CCCCCCc1ccc(-c2ncc(N)cn2)cc1 | inconclusive: 25.1 µM [inhibitor, single point] | 
18 | O=c1cnc2cnc(Oc3cccc(Cl)c3)nc2n1C1CC1 | inactive | 
19 | O=C1C2C3C=CC(C3=C3CCCCC3)C2C(=O)N1Cc1ccccc1 (centres undefined) | inconclusive: 12.6 µM [inhibitor, single point] | 
20 | COc1ccccc1-c1cc(C(F)(F)F)nc(NCc2ccco2)n1 | inconclusive: 10 µM [inhibitor, partial curve] | 
21 | Cc1oc(-c2ccc(F)cc2)cc1-c1nn2c(-c3ccoc3C)nnc2s1 | inconclusive: 20 µM [inhibitor, single point] | 
22 | CC(=O)N1CCC2(CC1)CN(c1ccccn1)C2 | inconclusive: 31.6 µM [inhibitor, partial curve] | 
23 | O=S(=O)(NC1CCCCCC1)c1cccc2cccnc12 | inactive | 
24 | COc1ccc(-c2nnc3c4ccccc4c(C)nn23)cc1S(=O)(=O)N1CCN(CCO)CC1 | inactive | 
25 | CCCCn1nnnc1SCC(=O)c1ccc(C)c(C)c1 | inconclusive: 12.6 µM [inhibitor, partial curve] | 

Row | Compound | Potency | activity change, negative = inhibition
26 | Cc1ccc(-c2nnc(CSc3nnc(COc4ccccc4)n3-c3ccccc3)o2)cc1 | inconclusive: 25.1 µM [inhibitor, single point] | 
27 | Cc1cc(N2CCN(C)CC2)nc2ccc(NC(=O)c3ccc4c(c3)OCO4)cc12 | inactive | 
28 | CC(=O)OC(C(=O)NCc1ccco1)c1ccncc1 (centres undefined) | inconclusive: 12.6 µM [inhibitor, single point] | 
29 | COc1ccccc1CNc1nc(-c2cccnc2)nc2ccccc12 | inconclusive: 15.8 µM [inhibitor, single point] | 
30 | S=C(Nc1ccccc1)Nc1nccs1 | inactive | 
31 | CCc1nc(N2CCCCC2)c2oc3ccccc3c2n1 | inconclusive: 12.6 µM [inhibitor, single point] | 
32 | COCCn1nnnc1SCC(=O)c1ccc(F)cc1 | inconclusive: 25.1 µM [inhibitor, single point] | 
33 | COc1ccc(CNc2ccnc(-c3cccc(C#N)c3)n2)c(OC)c1 | inconclusive: 25.1 µM [inhibitor, single point] | 
34 | COc1ccc(C2C(C#N)=C(N)Oc3cc(O)ccc32)cc1OC (centres undefined) | inactive | 
35 | O=C(Nc1scc(-c2ccccc2)c1C(=O)O)c1ccco1 | inconclusive: 10 µM [inhibitor, single point] | 
36 | COc1ccc(C(=O)N2CCC3(CCCN(C(=O)NC(C)C)C3)CC2)cc1 | active: 10 µM | 
37 | CN(C)c1ccc(C(=O)OCC(=O)Nc2ccc(S(N)(=O)=O)cc2)cc1 | inconclusive: 15.8 µM [inhibitor, single point] | 
38 | Cc1cccc2cc(C(c3nnnn3C3CCCC3)N3CCOCC3)c(=O)[nH]c12 (centres undefined) | inconclusive: 3.98 µM [inhibitor, single point] | 
39 | CC1=CC2C(CC1=O)C(C)=CCC2C(C)C (centres undefined) | inconclusive: 10 µM [inhibitor, single point] | 
40 | NCCCCN | inactive | 
41 | CCN1CCN(c2cc(C)c3cc(NC(=O)c4cncc(Br)c4)ccc3n2)CC1 | inactive | 
42 | CN(C)c1ncc2nc(-c3cccs3)c(=O)n(Cc3cccs3)c2n1 | inactive | 
43 | COc1ccc(-c2cc(C(=O)OCC(=O)N(C)C)c3ccccc3n2)cc1 | inconclusive: 5.01 µM [inhibitor, single point] | 
44 | O=C(Nc1scc(-c2cccs2)c1C(=O)O)c1cccs1 | inconclusive: 10 µM [inhibitor, single point] | 
45 | CCn1c(=O)c(C(=O)Nc2ccccc2S(N)(=O)=O)c(O)c2ccccc21 | inconclusive: 20 µM [inhibitor, single point] | 
46 | Cc1cccc(CNc2cc(-c3ccc(C(=O)N(C)C)cc3)ncn2)c1 | inactive | 
47 | CC(=O)N1c2ccccc2NC2=C(C(=O)CCC2)C1c1cccnc1 (centres undefined) | active: 1.58 µM | 
48 | CCOC(=O)c1cc2occc2n1CC(=O)NC1CCCCC1C (centres undefined) | inactive | 
49 | Cc1ccc(-c2ccc(=O)n(CC(=O)NCCN(C)C)n2)cc1 | inconclusive: 25.1 µM [inhibitor, single point] | 
50 | CCOC(=O)c1ccc(N=c2sc(C(=O)OC)cc(=O)n2C2CC2)cc1 | inconclusive: 2 µM [inhibitor, partial curve] | 

Row | Compound | Potency | activity change, negative = inhibition
51 | O=C(c1ccco1)N1CCN(c2ncnc3c(-c4ccccc4)nsc23)CC1 | inactive | 
52 | CCCCc1ccc(-c2ccc(C)cc2O)nc1 | inactive | 
53 | COc1ccc2[nH]cc(CCNc3nc(-c4cccc(NS(C)(=O)=O)c4)nc4ccccc34)c2c1 | inconclusive: 25.1 µM [inhibitor, single point] | 
54 | O=C(Oc1ccccc1)N1CCC2(CCCN(c3ncccn3)C2)CC1 |  | inconclusive: -40.6% [inhibitor]
55 | c1ccc(Nc2cc(-c3ccoc3)ncn2)cc1 | inactive | 
56 | Oc1ccccc1-c1cc(-c2ccc3c(c2)OCCO3)n[nH]1 | inconclusive: 25.1 µM [inhibitor, single point] | 
57 | O=C(CCCN1CCC(O)(c2ccc(Cl)cc2)CC1)c1ccc(F)cc1 | inactive | 
58 | N#Cc1cccc(-c2nc(Nc3ccncc3)c3ccccc3n2)c1 | inconclusive: 10 µM [inhibitor, partial curve] | 
59 | COCc1[nH]nc2c1C(c1ccc(OC)c(OC)c1)C(C#N)=C(N)O2 (centres undefined) | inconclusive: 10 µM [inhibitor, single point] | 
60 | O=C(O)CCN1C(=O)c2ccccc2C1=O | inactive | 
61 | O=C(O)Cc1ccc(C(=O)c2cccs2)s1 | inconclusive: 12.6 µM [inhibitor, single point] | 
62 | Nc1nc(C2CC2)c(Sc2sc(N)nc2C2CC2)s1 | inconclusive: 10 µM [inhibitor, partial curve] | 
63 | C=Cc1c(C)/c2[n-]/c1=C\c1[n-]c(c(CC)c1C)/C=c1\[n-]c3c(c1C)C(=O)C(C(=O)[O-])C=3c1[n-]c(c(C)c1CCC(=O)[O-])\C=2.[Cu].[Na+].[Na+] (centres undefined) | inconclusive: 20 µM [inhibitor, single point] | 
64 | N#CC1=C(N)N2C(=C(C#N)C13CCCCC3)SC1CCCCC12O (centres undefined) | inactive | 
65 | CC1=CC(=O)c2ccccc2C1=O | inconclusive: 6.31 µM [inhibitor, partial curve] | 
66 | CCS(=O)(=O)N1CCCC(C(=O)NCc2ccc(C)cc2)C1 (centres undefined) | inconclusive: 25.1 µM [inhibitor, single point] | 
67 | O=C(Cn1nc(Cl)nc1Cl)c1ccc2c(c1)OCCO2 | inconclusive: 25.1 µM [inhibitor, single point] | 
68 | COc1ccccc1-n1c(-c2cccnc2)n[nH]c1=S | inactive | 
69 | COc1cccc(-c2nccc(NCCc3c[nH]c4ccc(OC)cc34)n2)c1 | inconclusive: 25.1 µM [inhibitor, single point] | 
70 | CCc1ccc(-c2nnn(CCC(=O)OC)n2)cc1 | inactive | 
71 | C=C(C)COc1ccc(-c2n[nH]c(C)c2-c2ccccc2)c(O)c1 | inconclusive: 25.1 µM [inhibitor, single point] | 
72 | COc1ccc2[nH]cc(CCNc3ncnc4ccc(-c5ccccc5C#N)cc34)c2c1 | inconclusive: 25.1 µM [inhibitor, single point] | 
73 | COc1cccc(Oc2cn[nH]c2-c2ccc(OC)cc2O)c1 | inconclusive: 20 µM [inhibitor, single point] | 
74 | C[C@@H](Nc1nc(-c2ccccc2)nc2c1oc1ccccc12)C(=O)O | inconclusive: 25.1 µM [inhibitor, single point] | 
